Reference: the supplement of paper PMC3334620
In all, about 33,000 sequences were measured (“E-score (-0.5 to 0.5)”: median about -0.035, highest 2% from about 0.34 on). Some of the results follow.

Target: T1, Mot3 (UniProt P54785)
T1 sequence: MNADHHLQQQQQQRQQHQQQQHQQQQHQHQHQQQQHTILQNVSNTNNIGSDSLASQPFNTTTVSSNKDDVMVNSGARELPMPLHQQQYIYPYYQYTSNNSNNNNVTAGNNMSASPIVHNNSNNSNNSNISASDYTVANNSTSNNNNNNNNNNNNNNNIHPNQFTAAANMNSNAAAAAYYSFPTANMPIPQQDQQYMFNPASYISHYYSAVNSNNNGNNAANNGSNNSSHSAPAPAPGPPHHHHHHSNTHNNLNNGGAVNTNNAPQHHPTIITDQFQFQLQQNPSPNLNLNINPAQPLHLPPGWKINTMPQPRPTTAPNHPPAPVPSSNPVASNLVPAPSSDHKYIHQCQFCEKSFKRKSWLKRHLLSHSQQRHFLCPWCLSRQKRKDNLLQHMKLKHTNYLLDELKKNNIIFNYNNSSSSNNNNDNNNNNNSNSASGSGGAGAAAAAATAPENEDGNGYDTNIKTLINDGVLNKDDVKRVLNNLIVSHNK
Test: PBM E-score (8-mer binding enrichment) (E-score (-0.5 to 0.5)); higher = stronger / more preferred TF binding; most listed sequences are background and not binding sites
Details: protein concentration: 200 nM; construct: GST-full length
Outline: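 Detection of bound protein used fluorescent anti-GST, with scans normalised by masliner. The proteins were GST-tagged yeast transcription factors applied at about 100-200 nM to universal all-10-mer Agilent arrays made double-stranded by primer extension. Each ungapped eight-base word, pooled with its reverse complement, was scored with an E-score from the Universal PBM Analysis Suite.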

Sequence | PBM E-score
ATTAATCG | 0.00546
ATCACTTA | 0.0631
GTGGGGCA | -0.356
GGCTCTGA | 0.00444
AATTGTGG | 0.0614
ACAGGTCG | -0.129
AACCAACC | -0.0647
ATAGTTAC | 0.203
CCGGCCAA | -0.239
GTCGTTCA | -0.0486
GATTTAAC | 0.149
CTACGGCA | -0.118
ATTATCCA | -0.0189
CTGTGTTA | 0.334
GGTTTCTA | 0.0968
AACCATCC | -0.182
AACCTACC | -0.0754
AATACGAG | 0.109
AATGAACG | 0.115
CAGGCTCC | 0.28
AACAAAAT | 0.191
GCGGGGCC | -0.167
ACAGTCCG | -0.162
ACCCTATG | 0.0532
CGTATTAA | 0.165

Sequence | PBM E-score
ACTCTCGA | 0.109
AGCTAGGG | -0.117
CAGCCCAC | -0.114
AAAGCTGT | -0.108
GCCAATAA | -0.0458
CTTCTTAC | 0.155
ACTAAGTC | -0.138
TATAAAGA | 0.0854
CCCGGCCC | -0.304
ACTATCGC | -0.275
AACCACGG | -0.234
ATATAATC | 0.149
GCATGGCC | -0.0896
TCGTACGA | 0.0481
GCCTTCCC | -0.0975
CGGCATTA | -0.0232
ATTGGGCC | -0.086
CCCAGCGG | -0.169
CCGCTCTA | 0.0253
AGGAGGAC | -0.309
CGAACACC | -0.104
CATAGTTC | 0.124
CAATGGGG | -0.0677
CTGGGGGA | -0.407
TCCGTAGA | -0.125

Sequence | PBM E-score
TAAACCTA | -0.01
CAGGCTTA | -0.034
AGTGGAAC | -0.142
CTGGGTAC | -0.154
AGCGAACC | -0.108
AGGTCACT | -0.184
ACGGTAGG | -0.157
ACGGTTGG | -0.106
CGACCCCA | -0.138
CTCAACCA | -0.122
AGGCTAGA | -0.146
CTGTCTGC | -0.167
CCTTCTAG | 0.0376
ACTAGGCT | 0.0216
CACGCACC | -0.0142
ACCAGTAC | -0.0511
GATATAGA | -0.0457
CATACGGC | -0.11
AGGGCGCC | -0.164
AATCATCC | -0.019
AAACCGTA | -0.0686
ATTCGCTA | -0.0341
ATGATCTA | 0.142
CGATAGCA | -0.159
CTCATCAA | 0.0556

Sequence | PBM E-score
GAGGCAAA | 0.328
AAGACGAG | 0.0142
CGATGATC | -0.114
ATGTCACG | 0.175
AGGGAGGC | -0.0529
ACTCGCGG | -0.045
GTGGCCAC | -0.155
AGCGTTGA | -0.0446
GACGGTGC | 0.0469
AATCCCTG | -0.179
GCAGGGTA | -0.0563
TGGACACA | 0.0857
ATGAGGTG | -0.0399
AAGCCAGT | 0.0268
AGTCGATG | -0.138
ACTGGAAC | -0.119
TTTATAAA | 0.261
ACGATAAC | 0.00207
ACTACACT | 0.181
ATCGCTCG | -0.231
AAGCCCCG | 0.0651
AATTTGAC | 0.0529
GACTCAGA | -0.197
CAGACCAC | -0.109
TACCGAGA | -0.141

Sequence | PBM E-score
GCAGAGAC | -0.312
GAGTACGC | -0.0748
TTGAGCAA | -0.0983
GAGGTTGA | -0.187
CGGTTAAA | 0.0445
ACTGCATC | -0.107
CCTAGCGA | -0.225
ATTATAAA | 0.0362
TCCAGAGA | -0.156
CCGATACC | -0.0199
TCAATAAA | -0.00436
AGAGGACC | -0.226
CTTTTGGA | -0.124
GGTTTTGA | -0.00186
GGTTCAGA | -0.182
AGTGCGAT | -0.00843
TCTGCCCA | -0.168
ACCATCTC | -0.114
CCCTCACA | -0.147
AACCTTGG | -0.0639
CGCATTAA | 0.151
CCTCCTGC | -0.096
ACCACCGA | -0.1
CGACAAAA | 0.043
CTGGACAA | -0.0433

Sequence | PBM E-score
CAACCCAG | -0.0379
ATCTCCTG | -0.0112
CCCACCGC | -0.157
GACCTCAA | -0.166
CAGCGAAG | -0.0546
TCTCTAAA | -0.133
GCGGCGCC | -0.0759
CAACCGAG | -0.178
GCACGCCA | 0.00827
ATTGTTCG | 0.159
GCTCGAAA | -0.286
AAAGAACT | 0.0647
GCATGGTA | 0.054
CTTCACGA | -0.268
AGTATCGC | -0.102
ATTCAGGA | 0.0179
CCATATGA | -0.138
ATAGAGGC | 0.00663
TATTCGCA | 0.0876
CGAACAAA | 0.0491
GTATCGAA | 0.0527
CTTTTCGA | -0.07
ACTATTTG | 0.137
AGTGGACG | -0.028
GACCCCGC | -0.219

Sequence | PBM E-score
AACCTGTA | 0.222
CTTGGCTA | -0.158
ACGTTGCA | -0.0297
GAAGACGA | -0.211
ATTCGAAT | 0.149
ATGCCGAA | -0.137
CCACCCTC | -0.261
CCCAGGAA | 0.249
AATGACTG | -0.118
AACTGAGG | -0.0443
GGTGAACA | 0.0476
AGCAATTA | 0.115
CCTGGACG | -0.148
AACTAGGT | 0.119
ACGTTCCA | 0.0401
ACGCAATC | 0.0409
CGGAGGCA | 0.375
CGACAGAC | -0.212
GTAACTAC | 0.245
AAATCTCT | -0.0655
GCGCCTTA | 0.31
AACCACAA | 0.084
